Among the data in publication PMC11431708 are binding values, retold here.

Chains of the proteins cited; added tags and fusions are not shown.
UniProt Q8RWY4: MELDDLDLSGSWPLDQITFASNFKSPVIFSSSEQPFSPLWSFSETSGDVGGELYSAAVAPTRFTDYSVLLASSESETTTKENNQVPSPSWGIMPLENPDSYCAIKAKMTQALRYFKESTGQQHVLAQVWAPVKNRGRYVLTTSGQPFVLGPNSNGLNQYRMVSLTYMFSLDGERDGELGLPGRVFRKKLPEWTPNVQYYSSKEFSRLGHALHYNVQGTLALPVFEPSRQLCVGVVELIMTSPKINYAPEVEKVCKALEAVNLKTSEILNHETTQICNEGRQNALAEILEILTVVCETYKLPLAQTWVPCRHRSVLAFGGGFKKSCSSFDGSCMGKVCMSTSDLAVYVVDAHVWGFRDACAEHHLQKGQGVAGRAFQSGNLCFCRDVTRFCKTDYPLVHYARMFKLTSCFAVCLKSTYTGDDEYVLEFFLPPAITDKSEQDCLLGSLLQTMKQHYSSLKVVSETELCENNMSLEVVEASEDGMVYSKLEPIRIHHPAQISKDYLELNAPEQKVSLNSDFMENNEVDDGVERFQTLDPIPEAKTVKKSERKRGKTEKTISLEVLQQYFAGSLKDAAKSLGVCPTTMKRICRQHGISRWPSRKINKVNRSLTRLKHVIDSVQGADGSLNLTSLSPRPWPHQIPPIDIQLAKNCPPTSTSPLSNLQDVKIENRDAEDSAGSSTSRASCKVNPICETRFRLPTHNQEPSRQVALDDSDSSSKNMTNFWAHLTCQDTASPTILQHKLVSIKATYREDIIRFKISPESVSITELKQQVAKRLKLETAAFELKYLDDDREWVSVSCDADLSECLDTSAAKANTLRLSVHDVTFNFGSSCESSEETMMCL
UniProt Q84TH9: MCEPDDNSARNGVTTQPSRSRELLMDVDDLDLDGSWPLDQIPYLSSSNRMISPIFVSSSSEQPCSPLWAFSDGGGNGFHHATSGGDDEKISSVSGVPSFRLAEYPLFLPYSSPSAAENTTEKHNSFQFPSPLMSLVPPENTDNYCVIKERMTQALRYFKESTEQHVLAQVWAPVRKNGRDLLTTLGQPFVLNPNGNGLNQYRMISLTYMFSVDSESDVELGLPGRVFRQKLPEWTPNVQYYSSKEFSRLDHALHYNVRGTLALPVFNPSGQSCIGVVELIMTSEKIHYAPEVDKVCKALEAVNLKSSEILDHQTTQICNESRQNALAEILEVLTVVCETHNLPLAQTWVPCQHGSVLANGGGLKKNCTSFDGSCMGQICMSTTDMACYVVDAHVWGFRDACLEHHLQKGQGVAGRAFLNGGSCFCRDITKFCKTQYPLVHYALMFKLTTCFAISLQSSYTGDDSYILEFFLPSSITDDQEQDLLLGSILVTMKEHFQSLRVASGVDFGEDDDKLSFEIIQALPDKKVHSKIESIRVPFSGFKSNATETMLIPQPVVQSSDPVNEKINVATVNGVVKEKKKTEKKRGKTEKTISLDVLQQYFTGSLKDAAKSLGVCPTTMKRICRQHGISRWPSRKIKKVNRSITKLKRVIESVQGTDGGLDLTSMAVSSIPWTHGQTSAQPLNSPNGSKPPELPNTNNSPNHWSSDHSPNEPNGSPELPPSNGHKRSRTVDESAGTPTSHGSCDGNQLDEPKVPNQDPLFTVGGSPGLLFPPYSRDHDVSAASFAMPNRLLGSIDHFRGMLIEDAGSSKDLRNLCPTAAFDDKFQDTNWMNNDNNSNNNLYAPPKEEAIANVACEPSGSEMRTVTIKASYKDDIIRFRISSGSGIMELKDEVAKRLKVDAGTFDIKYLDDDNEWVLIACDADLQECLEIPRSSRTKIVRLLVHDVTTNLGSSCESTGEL
UniProt O82811: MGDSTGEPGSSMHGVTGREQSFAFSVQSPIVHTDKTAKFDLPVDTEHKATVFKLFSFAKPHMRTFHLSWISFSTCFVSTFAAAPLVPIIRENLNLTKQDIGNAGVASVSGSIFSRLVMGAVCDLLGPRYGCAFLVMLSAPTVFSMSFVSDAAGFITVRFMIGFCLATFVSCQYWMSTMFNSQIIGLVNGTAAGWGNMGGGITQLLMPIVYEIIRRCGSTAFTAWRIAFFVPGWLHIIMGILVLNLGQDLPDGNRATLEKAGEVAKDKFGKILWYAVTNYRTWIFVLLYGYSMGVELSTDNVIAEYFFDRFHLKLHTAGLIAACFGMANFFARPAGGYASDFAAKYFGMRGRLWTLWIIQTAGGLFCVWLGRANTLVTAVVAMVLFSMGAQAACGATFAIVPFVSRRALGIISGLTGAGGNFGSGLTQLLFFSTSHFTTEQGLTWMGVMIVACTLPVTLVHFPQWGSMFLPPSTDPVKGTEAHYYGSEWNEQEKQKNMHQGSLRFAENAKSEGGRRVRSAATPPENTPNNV
UniProt Q9LSD5: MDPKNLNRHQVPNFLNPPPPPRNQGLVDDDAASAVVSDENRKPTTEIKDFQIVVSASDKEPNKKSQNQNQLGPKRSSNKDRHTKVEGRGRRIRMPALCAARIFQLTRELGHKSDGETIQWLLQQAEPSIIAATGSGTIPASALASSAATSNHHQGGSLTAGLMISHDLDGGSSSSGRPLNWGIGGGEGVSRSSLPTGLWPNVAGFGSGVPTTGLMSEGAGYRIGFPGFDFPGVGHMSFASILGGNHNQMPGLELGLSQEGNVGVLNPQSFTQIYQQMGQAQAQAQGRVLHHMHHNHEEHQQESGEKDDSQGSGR

No constants are given. Whether binding was seen depends on the method and setting. Some results given as binding are weak or reduced against the parent protein; the word gives no strength.

To fix the notation:
T1: CBL-interacting protein kinase 1 (CIPK1) (Arabidopsis thaliana) (UniProt Q8RWC9)
T1 sequence: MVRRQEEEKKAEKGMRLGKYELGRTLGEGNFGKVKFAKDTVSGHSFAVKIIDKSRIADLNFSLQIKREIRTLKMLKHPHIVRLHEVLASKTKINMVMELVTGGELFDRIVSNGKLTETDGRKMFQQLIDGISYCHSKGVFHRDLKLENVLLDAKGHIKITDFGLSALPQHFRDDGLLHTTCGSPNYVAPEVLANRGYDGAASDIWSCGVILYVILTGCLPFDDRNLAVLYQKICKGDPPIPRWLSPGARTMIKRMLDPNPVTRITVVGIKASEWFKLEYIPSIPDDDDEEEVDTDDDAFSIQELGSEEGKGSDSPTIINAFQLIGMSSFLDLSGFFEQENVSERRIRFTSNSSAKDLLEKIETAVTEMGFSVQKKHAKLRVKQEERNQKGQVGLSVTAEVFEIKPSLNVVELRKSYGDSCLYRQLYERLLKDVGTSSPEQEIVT

B1: NRT1.1/NPF6.3/chlorate resistant 1 (CHL1) (protein, UniProt Q05085 1-590)
chain: MSLPETKSDDILLDAWDFQGRPADRSKTGGWASAAMILCIEAVERLTTLGIGVNLVTYLTGTMHLGNATAANTVTNFLGTSFMLCLLGGFIADTFLGRYLTIAIFAAIQATGVSILTLSTIIPGLRPPRCNPTTSSHCEQASGIQLTVLYLALYLTALGTGGVKASVSGFGSDQFDETEPKERSKMTYFFNRFFFCINVGSLLAVTVLVYVQDDVGRKWGYGICAFAIVLALSVFLAGTNRYRFKKLIGSPMTQVAAVIVAAWRNRKLELPADPSYLYDVDDIIAAEGSMKGKQKLPHTEQFRSLDKAAIRDQEAGVTSNVFNKWTLSTLTDVEEVKQIVRMLPIWATCILFWTVHAQLTTLSVAQSETLDRSIGSFEIPPASMAVFYVGGLLLTTAVYDRVAIRLCKKLFNYPHGLRPLQRIGLGLFFGSMAMAVAALVELKRLRTAHAHGPTVKTLPLGFYLLIPQYLIVGIGEALIYTGQLDFFLRECPKGMKGMSTGLLLSTLALGFFFSSVLVTIVEKFTGKAHPWIADDLNKGRLYNFYWLVAVLVALNFLIFLVFSKWYVYKEKRLAEVGIELDDEPSIPMGH
B2: TGACG motif-binding factor 4 (TGA4) (protein, UniProt Q39162 1-364)
chain: MNTTSTHFVPPRRFEVYEPLNQIGMWEESFKNNGDMYTPGSIIIPTNEKPDSLSEDTSHGTEGTPHKFDQEASTSRHPDKIQRRLAQNREAARKSRLRKKAYVQQLETSRLKLIHLEQELDRARQQGFYVGNGVDTNALSFSDNMSSGIVAFEMEYGHWVEEQNRQICELRTVLHGQVSDIELRSLVENAMKHYFQLFRMKSAAAKIDVFYVMSGMWKTSAERFFLWIGGFRPSELLKVLLPHFDPLTDQQLLDVCNLRQSCQQAEDALSQGMEKLQHTLAESVAAGKLGEGSYIPQMTCAMERLEALVSFVNQADHLRHETLQQMHRILTTRQAARGLLALGEYFQRLRALSSSWAARQREPT
B3: NRT2.5 (protein, UniProt Q9LPV5 1-502)
chain: MEVEGKGGEAGTTTTTAPRRFALPVDAENKATTFRLFSVAKPHMRAFHLSWFQFFCCFVSTFAAPPLLPVIRENLNLTATDIGNAGIASVSGAVFARIVMGTACDLFGPRLASAALTLSTAPAVYFTAGIKSPIGFIMVRFFAGFSLATFVSTQFWMSSMFSGPVVGSANGIAAGWGNLGGGATQLIMPIVFSLIRNMGATKFTAWRIAFFIPGLFQTLSAFAVLLFGQDLPDGDYWAMHKSGEREKDDVGKVISNGIKNYRGWITALAYGYCFGVELTIDNIIAEYFFDRFHLKLQTAGIIAASFGLANFFARPGGGIFSDFMSRRFGMRGRLWAWWIVQTSGGVLCACLGQISSLTVSIIVMLVFSVFVQAACGLTFGVVPFISRRSLGVVSGMTGAGGNVGAVLTQLIFFKGSTYTRETGITLMGVMSIACSLPICLIYFPQWGGMFCGPSSKKVTEEDYYLAEWNDEEKEKNLHIGSQKFAETSISERGRATTTHPQT

In this assay the target is T1, CBL-interacting protein kinase 1 (CIPK1) (Arabidopsis thaliana). In words: two-hybrid; yeast two-hybrid; growth on synthetic dropout medium lacking threonine, leucine, and histidine (SD/-TLH); full-length cDNAs; which partner was on AD or BD not stated.
“NIN-like protein 6 (NLP6) (from UniProt Q8RWY4 1-841)”: the binding entry was “no binding”.
Take “NIN-like protein 7 (NLP7) (from UniProt Q84TH9 1-959)”: the binding result was “no binding”.
As to NRT2.1 (from UniProt O82811 1-530), the binding result is “no binding”.
In the case of NRT2.2 (from UniProt Q9LMZ9 1-522), the binding result is reported as “no binding”.
Consider “teosintebranched 1/cycloidea/proliferating cell factor 1-20 (TCP20) (from UniProt Q9LSD5 1-314)”, for which the binding entry was “binds”.
B1: the binding result is given as “no binding”.
For the molecule B2, the binding result is given as “no binding”.
As for B3, the binding entry is on record as “no binding”.
